Results from the supplement of paper PMC4604168 (melanoma cell lines).
The list shows a part of the results. Single values are uncertain, as repeats are few or missing.

Experiments:
Test in all cases: cell count relative to DMSO control; melanoma cells; higher = more viable cells
Conditions in all cases: library dose: standard library concentration; 72 h
[1] = tested on: G361
[2] = tested on: IPC-298
[3] = tested on: IST-MEL1
[4] = tested on: LOXIMVI
[5] = tested on: MEL-HO
[6] = tested on: MeWo
[7] = tested on: RPMI7951
[8] = tested on: RVH-421
[9] = tested on: SkMel28
[10] = tested on: SkMel2
[11] = tested on: SkMel30
[12] = tested on: SkMel5
[13] = tested on: UACC257
[14] = tested on: UACC62
[15] = tested on: WM115
[16] = tested on: WM1716
[17] = tested on: WM1745
[18] = tested on: WM3526
[19] = tested on: LB2518-MEL
[20] = tested on: MZ2-MEL
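Note: cells treated in 1,536-well plates, then fixed and DAPI-stained, with nuclei counted from automated high-throughput microscope images.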

| SMILES | cell count [1] [%] | cell count [2] [%] | cell count [3] [%] | cell count [4] [%] | cell count [5] [%] | cell count [6] [%] | cell count [7] [%] | cell count [8] [%] | cell count [9] [%] | cell count [10] [%] | cell count [11] [%] | cell count [12] [%] | cell count [13] [%] | cell count [14] [%] | cell count [15] [%] | cell count [16] [%] | cell count [17] [%] | cell count [18] [%] | cell count [19] [%] | cell count [20] [%] |
| --- | --- | --- | --- | --- | --- | --- | --- | --- | --- | --- | --- | --- | --- | --- | --- | --- | --- | --- | --- | --- |
| C[C@]1(O)C[C@@H](c2nc(-c3ccc4ccc(-c5ccccc5)nc4c3)c3c(N)nccn32)C1 + CC(=O)c1c(C)c2cnc(Nc3ccc(N4CCNCC4)cn3)nc2n(C2CCCC2)c1=O [palbociclib] (first compound 2 µM, partner dose 0.2 µM) | 63.4 | 68.7 | 85.3 | 70.8 | 84.8 | 56.6 | 69.1 | 70.3 | 59 | 73.9 | 74.7 | 56.4 | 87.9 | 53.6 | 70.4 | 46.6 | 59.9 | 62.9 | – | – |
| Cn1cnc2c(F)c(Nc3ccc(Br)cc3Cl)c(C(=O)NOCCO)cc21 [selumetinib] + O=C(O)c1ccc2c(c1)nc(Nc1cccc(Cl)c1)c1ccncc12 [CX4945] (first compound 0.075 µM, partner dose 2 µM) | 31.7 | 37.2 | 87.8 | 80.2 | 40.9 | 67.2 | 122 | 57.8 | 34.7 | 25.1 | 38.7 | 55.6 | 72.7 | 49.1 | 54.9 | 103 | 65.6 | 36.9 | – | – |
| Cn1cnc2c(F)c(Nc3ccc(Br)cc3Cl)c(C(=O)NOCCO)cc21 [selumetinib] + COc1ccc2c(c1)CCC1C2CCC2(C)C(NCCCCCCN3C(=O)C=CC3=O)CCC12 [U73122] (first compound 0.075 µM, partner dose 2 µM) | 65.5 | 77.8 | 88.7 | 69.2 | 85.2 | 23.5 | 33.3 | 68.4 | 67 | 66.5 | 60.6 | 67.8 | 80.7 | 37 | 67.9 | 81.5 | – | 53 | 55.8 | 91.8 |
| CCN(CC)CCNC(=O)c1c(C)[nH]c(/C=C2\C(=O)Nc3ccc(F)cc32)c1C [sunitinib] + Cc1cc([N+](=O)[O-])ccc1NS(=O)(=O)c1cc(Cl)ccc1Cl [FH535] (first compound 2 µM, partner dose 5 µM) | 45.6 | 50.4 | 60.2 | 82.2 | 58.2 | 47.6 | 71.2 | 79.9 | 39.8 | 62.1 | 43 | 44.4 | 63.3 | 42.3 | 51.9 | 89.6 | – | 57.7 | 77 | 79.1 |
| CCN(CC)CCNC(=O)c1c(C)[nH]c(/C=C2\C(=O)Nc3ccc(F)cc32)c1C [sunitinib] + CC1(C)NC(=O)N(c2ccc([N+](=O)[O-])c(C(F)(F)F)c2)C1=O [nilutamide] (first compound 2 µM, partner dose 5 µM) | 75.1 | 71.5 | 78.1 | 80.2 | 82.5 | 44.2 | 59.1 | 114 | 60.9 | – | 75.2 | 46 | 68.8 | 71.5 | 55.6 | 83.8 | 52.9 | 41.1 | – | – |
| COc1cc([C@@H]2c3cc4c(cc3[C@@H](O[C@@H]3O[C@@H]5CO[C@@H](C)O[C@H]5[C@H](O)[C@H]3O)[C@H]3COC(=O)[C@H]23)OCO4)cc(OC)c1O [etoposide] + Cc1cn(-c2cc(NC(=O)c3ccc(C)c(Nc4nccc(-c5cccnc5)n4)c3)cc(C(F)(F)F)c2)cn1 [nilotinib] (first compound 0.1 µM, partner dose 1 µM) | 84.9 | 63.1 | 96.2 | 151 | 94.4 | 89 | 84.9 | 61.9 | 68.5 | 66.2 | 78.4 | 78.8 | 104 | 56.6 | 91.7 | 75.8 | 68.1 | 86.7 | – | – |
| COc1cc([C@@H]2c3cc4c(cc3[C@@H](O[C@@H]3O[C@@H]5CO[C@@H](C)O[C@H]5[C@H](O)[C@H]3O)[C@H]3COC(=O)[C@H]23)OCO4)cc(OC)c1O [etoposide] + CCCS(=O)(=O)Nc1ccc(F)c(C(=O)c2c[nH]c3ncc(Cl)cc23)c1F [PLX4720] (first compound 0.1 µM, partner dose 0.4 µM) | 61.1 | 62.1 | 92 | 95.4 | 74.1 | 103 | – | 82.9 | 55 | 77.2 | 75 | 67 | 87.3 | 52.1 | 67.5 | 67.7 | 75 | 67.3 | – | – |
| CCN(CC)CCNC(=O)c1c(C)[nH]c(/C=C2\C(=O)Nc3ccc(F)cc32)c1C [sunitinib] + CS(=O)(=O)CCNCc1ccc(-c2ccc3ncnc(Nc4ccc(OCc5cccc(F)c5)c(Cl)c4)c3c2)o1 [lapatinib] (first compound 2 µM, partner dose 4 µM) | 8.38 | 67.6 | 96.5 | 110 | 58.4 | 50.9 | 11.1 | 90.8 | 36.7 | 57.5 | 52.4 | 21.2 | 91.3 | 28.1 | 68.6 | 96.9 | 39.6 | 51.9 | – | – |
| Cn1cnc2c(F)c(Nc3ccc(Br)cc3Cl)c(C(=O)NOCCO)cc21 [selumetinib] + C=CCNC1=C2C[C@@H](C)C[C@H](OC)[C@H](O)[C@@H](C)/C=C(\C)[C@H](OC(N)=O)[C@@H](OC)/C=C\C=C(/C)C(=O)NC(=CC1=O)C2=O [Tanespimycin] (first compound 0.075 µM, partner dose 0.01 µM) | 55 | 49 | 56.5 | 115 | 62.8 | 52.8 | 23 | 46.7 | 34 | 41.7 | 44.2 | 54.4 | 98.4 | 50.4 | 20.1 | 65.4 | 42.2 | 43 | – | – |
| C[C@]1(O)C[C@@H](c2nc(-c3ccc4ccc(-c5ccccc5)nc4c3)c3c(N)nccn32)C1 + Cn1cc(/C=C2\C(=O)Nc3cccnc32)c2ccccc21 [GW441756] (first compound 2 µM, partner dose 2 µM) | 92.1 | 89.9 | 118 | 59.2 | 100 | 89.4 | 92.8 | 114 | 87.4 | – | 82.3 | 62.9 | 86.9 | 75.3 | 93.1 | 98.4 | – | 78.2 | – | – |
| COc1cc([C@@H]2c3cc4c(cc3[C@@H](O[C@@H]3O[C@@H]5CO[C@@H](C)O[C@H]5[C@H](O)[C@H]3O)[C@H]3COC(=O)[C@H]23)OCO4)cc(OC)c1O [etoposide] + O=C1NC(=O)/C(=C/c2ccc(-c3ccc(F)cc3O)o2)S1 [AS252424] (first compound 0.1 µM, partner dose 5 µM) | 92 | 71.7 | 115 | 101 | 81.2 | 116 | 103 | 90.2 | 63.2 | 63.2 | – | 93.5 | 97.6 | 74.7 | 73.2 | 76.2 | – | 86.8 | 76.2 | 84 |
| CCN(CC)CCNC(=O)c1c(C)[nH]c(/C=C2\C(=O)Nc3ccc(F)cc32)c1C [sunitinib] + CCN(CC)CCCCNc1ncc2cc(-c3cc(OC)cc(OC)c3)c(NC(=O)NC(C)(C)C)nc2n1 [PD173074] (first compound 2 µM, partner dose 0.5 µM) | 82.2 | 87.4 | 101 | 71.3 | 92.2 | 48.8 | 64.9 | 95.3 | 57 | 56.8 | 50.8 | 43 | 94.7 | 54.8 | 73.8 | 97.9 | – | 54.7 | 60 | 142 |
| C[C@]1(O)C[C@@H](c2nc(-c3ccc4ccc(-c5ccccc5)nc4c3)c3c(N)nccn32)C1 + Oc1cc(-c2nc(-c3ccccc3)[nH]c2-c2ccncc2)ccc1Cl [L779450] (first compound 2 µM, partner dose 1 µM) | 45.4 | 72.5 | 78.5 | 89.1 | 77.8 | 66.5 | 67 | 68.8 | 38 | 11.3 | 82.7 | 65 | 81.9 | 47.9 | 64.3 | 77.7 | – | 43.8 | 83.1 | 93.3 |
| Cn1cnc2c(F)c(Nc3ccc(Br)cc3Cl)c(C(=O)NOCCO)cc21 [selumetinib] + OCCn1cc(-c2cnc3nnn(Cc4ccc5ncccc5c4)c3n2)cn1 [PF04217903] (first compound 0.075 µM, partner dose 5 µM) | 71.6 | 56.5 | 80.4 | 130 | 85.1 | 76.6 | 91.6 | 62.9 | 49.5 | – | 65.7 | 84.3 | 87.1 | 62.3 | 65.7 | 65.6 | 85.8 | 55.7 | – | – |
| C[C@]1(O)C[C@@H](c2nc(-c3ccc4ccc(-c5ccccc5)nc4c3)c3c(N)nccn32)C1 + Nc1nc(F)nc2c1ncn2[C@@H]1O[C@H](CO)[C@@H](O)[C@@H]1O [fludarabine] (first compound 2 µM, partner dose 1 µM) | 74.9 | 65.1 | 72.9 | 61.5 | 64.7 | 59.2 | 87.5 | 71.8 | 1.34 | 1.15 | 14 | 29 | 37.4 | 58.9 | 70.6 | 85.6 | 59.5 | 19.1 | – | – |
